The values that follow come from PMC12136788.

First the molecules themselves.
T1: UNK ZnF1-3 (human, UniProt Q9C0B0 31-174)
T1 sequence: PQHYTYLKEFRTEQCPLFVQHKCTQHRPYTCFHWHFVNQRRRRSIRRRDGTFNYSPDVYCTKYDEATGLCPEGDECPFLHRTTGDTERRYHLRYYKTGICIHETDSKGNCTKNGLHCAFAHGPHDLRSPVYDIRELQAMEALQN

B1: 42935089_42936028_1257_CDS_ENSG00000057935_ENST00000405094|human|control|control (ssRNA)
RNA: GGGAGUUCUACAGUCCGACGAUCUCUAACACGAGGGUCCUCUGUAGUUGGGCUAGGAGAUAACUUCUCUUCUUCUGACUGGGUGGGCAUUUUCAAGCCUCCAUAUUUUUUCCAAUAAAGCCAACAAAUUGCACAUAAUCUACACAACAGAGGAUUGAGCAUCA
B2: chr11:60016922:60016923:-_ENSMUSG00000020538_ENSMUST00000020846|mus_hu|FALSE|FALSE (ssRNA)
RNA: GGGAGUUCUACAGUCCGACGAUCCAGCUUAUGGUAGACCAGGGCUGCGUCUCGGGCGCUGGCGCUAGCAUCCACUCGCAGAGCACAGUCCUGCUGCAGGCCCCCUGCCCGGCCUGCCAGCCAGCGGCCCACCCAGAGACGCUGCAACAGAGGAUUGAGCAUCA
B3: chr15:83807826:83807827:-_ENSG00000166503_ENST00000299633|hu_hu|FALSE|FALSE (ssRNA)
RNA: GGGAGUUCUACAGUCCGACGAUCGGGCAACUUCAUGCAACCAAAUAACAUGAAAUUAAAUCAGUAACUUUUAAAAAAGGCUAAAAUGUCUUUUCCCCCCGAAACACAACAGAGAGGAAUAUGAAUAAUGUACAUACAAACUGGCAACAGAGGAUUGAGCAUCA
B4: chr2:202488911:202488912:-_ENSG00000155755_ENST00000286196|hu_mus|hu_hu_hu_mus_False|78_88 (ssRNA)
RNA: GGGAGUUCUACAGUCCGACGAUCAUUGAAACAUUUUUCAUAAUCUCAGAGAUGUUUCAGUAUUAUAGUAACAAAAGCUCAAUUGUAAAUACAUGUAUCUUAUAAAAAUACACUUAAAAACACGAGUGGGGAGCGCAGGCGCCACAACAGAGGAUUGAGCAUCA
B5: chr12:39756943:39756944:-_ENSG00000139116_ENST00000544797|hu_mus|hu_hu_hu_mus_False|78_108 (ssRNA)
RNA: GGGAGUUCUACAGUCCGACGAUCGGUUUGGCUAUUACCCCCAAGGGAAUCCUGCAAUAGUCUUGUUAGCUUAGAGUCUCUGUAAGGGACAUGGGUGGCUCUCUUGCUCUUGUCCCCCAAGGCGCUGAUUACAUUCCCAAGAGCCAACAGAGGAUUGAGCAUCA
B6: chrX:12728449:12728450:+_ENSMUSG00000031010_ENSMUST00000089302|perfect_dup|FALSE|FALSE (ssRNA)
RNA: GGGAGUUCUACAGUCCGACGAUCAUGCCCUAAGGCUUUUAAAGCUUCAUCUAAACUAUCCACCAAAGAAUUAAAGAACUCUAAAGCAUCAUGUUGUUCACGAAGAUUGACAGGCUCACCCCAAAGCCUGAACUGUUUCCAAAACAACAGAGGAUUGAGCAUCA
B7: chr20:57485947:57485948:+_ENSG00000087460_ENST00000306090|hu_hu|FALSE|FALSE (ssRNA)
RNA: GGGAGUUCUACAGUCCGACGAUCGGGGGUUUCGCAAAAUCACUCGGGGGAAGGGAAAGGUUGCUUUGUUAAUCAUGCCCUAUGGUGGGUGAUUAACUGCUUGUACAAUUACGUUUCACUUUUAAUUAAUUGUGCUUAAGGCUUCAACAGAGGAUUGAGCAUCA
B8: chr11:43534790:43534791:+_ENSMUSG00000044950_ENSMUST00000129229|mus_hu|FALSE|FALSE (ssRNA)
RNA: GGGAGUUCUACAGUCCGACGAUCCCAUCUGGUUUUCUCAUGUUUUCUCCAUUCAUUAAAAAAGAAAAAUUAAGGUCUUUUAUAUAUUUACCAAAGACAAGAAAAAAACUACAGUCUCUAUUAGUAAGAAUUCAUGCUCCAUGCCAACAGAGGAUUGAGCAUCA
B9: chr6:33282685:33282686:-_ENSG00000236104_ENST00000431845|hu_hu|FALSE|FALSE (ssRNA)
RNA: GGGAGUUCUACAGUCCGACGAUCAUGGUGAAACUGUGGUUCCCCUUCCAGAAUAUAUACAAGUCCACAGAGAUAAAGGAAGACAGUAAGUGUGGUGGGAGAUCACCCGGGGGCCACAGCGCCCUUGCAUCGUGCUCCUUAUUCCAACAGAGGAUUGAGCAUCA
B10: chr2:78710632:78710633:+_ENSMUSG00000027011_ENSMUST00000028398|mus_mus|FALSE|FALSE (ssRNA)
RNA: GGGAGUUCUACAGUCCGACGAUCUCGGGCUCUGGAGCGGCAGGGUCUCGCUGAUCUGCAUCUGAACUGCCACUGCUGGUGCUAGGGCUCUCAUCAUCCGACCUUUGCCUGUCACUGGACAUCUUGGUGAACUUAUCUCUGGGACAACAGAGGAUUGAGCAUCA
B11: chr20:60963365:60963366:+_ENSG00000171858_ENST00000343986|hu_hu|FALSE|FALSE (ssRNA)
RNA: GGGAGUUCUACAGUCCGACGAUCCGCACGGUAAAGUCCACGAUGUCCCGAAGUGAUGAGCAAAGCCCAGGGAAACACUCACCAUCCUACGAAUGGCCCCGCAGAUAGCAUAAGUUUUAAACUGGCCAUUAAACCUGCCUGUGACAACAGAGGAUUGAGCAUCA
B12: chr7:34935884:34935885:-_ENSMUSG00000052997_ENSMUST00000102746|mus_mus|FALSE|FALSE (ssRNA)
RNA: GGGAGUUCUACAGUCCGACGAUCUAAAAUCUUUAAUCCUUCCAACACUAUCAAGCCGGCGAUCACUGCAUUAGUAGUAGCUAUAGCAGGAAUGAUAUUCCCUGCCAUUGAUUUUAUAUCAAACCUGCUCUUCAUAUUCAUGCUCAACAGAGGAUUGAGCAUCA
B13: chr11:4749296:4749297:-_ENSMUSG00000009073_ENSMUST00000109910|mus_mus|motif|central (ssRNA)
RNA: GGGAGUUCUACAGUCCGACGAUCGCAGCCCCGAGCUUGGAGCUUCGGGCUGGGGACGCCAGGGACGCCUUUGGACAGAAAUCCGGGACGGCUGCGGCGCCGACGCCGGGCCUCUCAGCGACCCCCGAGGGUCGCGGGGCCGCGCAACAGAGGAUUGAGCAUCA
B14: chr18:38611996:38611997:+_ENSMUSG00000024425_ENSMUST00000025293|mus_hu|FALSE|FALSE (ssRNA)
RNA: GGGAGUUCUACAGUCCGACGAUCGAGACCAAAUCCUGAAAUGGCCCCAUACCUUCCUGCAGCUGAAGUGGUCAGGCAAAAAGACAGGAAAAACCCAAUCCAGUUAAAGAGGAAUGCCAUGAAAAAAGUUAACAUGAAAAUCCCCAACAGAGGAUUGAGCAUCA

The list shows a part of the results.

The experiment addresses T1, UNK ZnF1-3. The experiment in a line: nsRBNS (natural sequence RNA bind-n-seq); RBNS binding buffer (assumed for nsRBNS): 25 mM Tris pH 7.5, 150 mM KCl, 3 mM MgCl2, 0.01% Triton X-100, 500 ug/ml BSA, 20 U/ml SUPERase-In, 4 C; UNK is unkempt and MSI1 is Musashi-1; names of the RNAs are library labels; protein concentration not given here; high values mean tight binding.
The molecule B1 had a binding signal of 0.813 enrichment R.

As for B2, the binding signal was 0.798 enrichment R. For B3 the value was 2.35 enrichment R.

Consider B4, for which the binding signal came out at 0.674 enrichment R. Turning to B5, the binding signal is 0.751 enrichment R.

Turning to B6, the binding signal came out at 1.31 enrichment R.

Molecule B7 yielded a binding signal of 1.01 enrichment R. For B8 the value was 2.05 enrichment R; for B9, 1.3 enrichment R; for B10, 0.829 enrichment R.

The molecule B11 had a binding signal of 1.23 enrichment R.

Regarding B12, the binding signal was determined as 0.512 enrichment R. Molecule B13 registered a binding signal of 0.34 enrichment R.

B14 returned a binding signal of 1.85 enrichment R.
